# The other results are listed elsewhere or left out.
# B1: Epa1to9 (Candida glabrata) (protein)
# chain: MGSSHHHHHHSSGLVPRGSHMTSSNDISLASKDPTTFPLGCSPDITTPKKGLSMELYSYDFRKKGSYPCWDAAYLDPNYPRTGYKSHRLLAKVDGVTGNINFYYHATKGCTPQLGHLPASYNYPKPLTMTNFTMLLYGYFRPKVTGFHTFTISADDLLFVNFGAGNAFDCCRRDSSADHFGNYQAYAIWGSKTAKDELTVHLDAGVYYPIRLFYNNRDYHGALSFTFKTESNENTVSDFSEYFFSLDDTEEGCPGLISYD
# Legend:
# Assay in all cases: glycan array binding signal (z-score within array); higher = stronger binding
# Conditions in all cases: glycan notation: IUPAC condensed, linker removed
# Gal(a1-3)GalNAc = target: Gal(a1-3)GalNAc
# How it was run: (§1)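 Negative Z-scores can be read as non-binding. The Z-score is calculated within each array and then averaged across arrays of one protein sequence at different concentrations or buffers and across linkers. Arrays, 3228 in all, were curated from the Consortium for Functional Glycomics database and kept only where the protein sequence was available.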
# [1] = target: Gal(a1-3)[Gal(a1-4)]Gal(b1-4)GlcNAc
# How it was run: as §1
# [2] = target: Gal(a1-4)Gal(b1-3)GlcNAc(b1-2)Man(a1-3)[Gal(a1-4)Gal(b1-3)GlcNAc(b1-2)Man(a1-6)]Man(b1-4)GlcNAc(b1-4)GlcNAc
# How it was run: as §1
# Gal(a1-4)Gal(b1-4)Glc = target: Gal(a1-4)Gal(b1-4)Glc
# How it was run: as §1
# Gal(a1-4)Gal(b1-4)GlcNAc = target: Gal(a1-4)Gal(b1-4)GlcNAc
# How it was run: as §1
# [3] = target: Gal(a1-4)Gal(b1-4)GlcNAc(b1-2)Man(a1-3)[Gal(a1-4)Gal(b1-4)GlcNAc(b1-2)Man(a1-6)]Man(b1-4)GlcNAc(b1-4)GlcNAc
# How it was run: as §1
# [4] = target: Gal(a1-4)Gal(b1-4)GlcNAc(b1-3)Gal(b1-4)Glc
# How it was run: as §1
# Gal(a1-4)GlcNAc = target: Gal(a1-4)GlcNAc
# How it was run: as §1
# Gal(a1-6)Glc = target: Gal(a1-6)Glc
# How it was run: as §1
# Gal(b1-2)Gal = target: Gal(b1-2)Gal
# How it was run: as §1
# Gal(b1-3)Gal = target: Gal(b1-3)Gal
# How it was run: as §1
# Gal(b1-3)Gal(b1-4)GlcNAc = target: Gal(b1-3)Gal(b1-4)GlcNAc
# How it was run: as §1
# Gal(b1-3)GalNAc = target: Gal(b1-3)GalNAc
# How it was run: as §1
# [5] = target: Gal(b1-3)GalNAc(a1-3)[Fuc(a1-2)]Gal(b1-4)Glc
# How it was run: as §1
# [6] = target: Gal(b1-3)GalNAc(a1-3)[Fuc(a1-2)]Gal(b1-4)GlcNAc
# How it was run: as §1
# Gal(b1-3)GalNAc(b1-3)Gal = target: Gal(b1-3)GalNAc(b1-3)Gal
# How it was run: as §1
# [7] = target: Gal(b1-3)GalNAc(b1-3)Gal(a1-4)Gal(b1-4)Glc
# How it was run: as §1
# [8] = target: Gal(b1-3)GalNAc(b1-4)Gal(b1-4)Glc
# How it was run: as §1
# [9] = target: Gal(b1-3)GalNAc(b1-4)[Neu5Ac(a2-3)]Gal(b1-4)Glc
# How it was run: as §1
# Gal(b1-3)GlcNAc = target: Gal(b1-3)GlcNAc
# How it was run: as §1
# [10] = target: Gal(b1-3)GlcNAc(a1-3)Gal(b1-4)GlcNAc
# How it was run: as §1
# [11] = target: Gal(b1-3)GlcNAc(a1-6)Gal(b1-4)GlcNAc
# How it was run: as §1
# Gal(b1-3)GlcNAc(b1-2)Man = target: Gal(b1-3)GlcNAc(b1-2)Man
# How it was run: as §1
# [12] = target: Gal(b1-3)GlcNAc(b1-2)Man(a1-3)[Gal(b1-3)GlcNAc(b1-2)Man(a1-6)]Man(b1-4)GlcNAc(b1-4)GlcNAc
# How it was run: as §1
# [13] = target: Gal(b1-3)GlcNAc(b1-2)Man(a1-3)[Gal(b1-3)GlcNAc(b1-2)Man(a1-6)]Man(b1-4)GlcNAc(b1-4)[Fuc(a1-6)]GlcNAc
# How it was run: as §1
# [14] = target: Gal(b1-3)GlcNAc(b1-2)Man(a1-3)[GlcNAc(b1-4)][Gal(b1-3)GlcNAc(b1-2)Man(a1-6)]Man(b1-4)GlcNAc(b1-4)GlcNAc
# How it was run: as §1
# [15] = target: Gal(b1-3)GlcNAc(b1-2)[Gal(b1-3)GlcNAc(b1-6)]Man(a1-6)[Gal(b1-3)GlcNAc(b1-2)Man(a1-3)]Man(b1-4)GlcNAc(b1-4)GlcNAc
# How it was run: as §1
# [16] = target: Gal(b1-3)GlcNAc(b1-3)Gal(b1-3)GlcNAc
# How it was run: as §1
# [17] = target: Gal(b1-3)GlcNAc(b1-3)Gal(b1-4)Glc
# How it was run: as §1
# [18] = target: Gal(b1-3)GlcNAc(b1-3)Gal(b1-4)GlcNAc
# How it was run: as §1
# [19] = target: Gal(b1-3)GlcNAc(b1-3)Gal(b1-4)GlcNAc(b1-2)Man(a1-3)[Gal(b1-3)GlcNAc(b1-3)Gal(b1-4)GlcNAc(b1-2)Man(a1-6)]Man(b1-4)GlcNAc(b1-4)GlcNAc
# How it was run: as §1
# [20] = target: Gal(b1-3)GlcNAc(b1-3)Gal(b1-4)GlcNAc(b1-2)[Gal(b1-3)GlcNAc(b1-3)Gal(b1-4)GlcNAc(b1-6)]Man(a1-6)[Gal(b1-3)GlcNAc(b1-3)Gal(b1-4)GlcNAc(b1-2)Man(a1-3)]Man(b1-4)GlcNAc(b1-4)[Fuc(a1-6)]GlcNAc
# How it was run: as §1
# [21] = target: Gal(b1-3)GlcNAc(b1-3)Gal(b1-4)GlcNAc(b1-3)Gal(b1-4)GlcNAc(b1-2)[Gal(b1-3)GlcNAc(b1-3)Gal(b1-4)GlcNAc(b1-3)Gal(b1-4)GlcNAc(b1-6)]Man(a1-6)[Gal(b1-3)GlcNAc(b1-3)Gal(b1-4)GlcNAc(b1-3)Gal(b1-4)GlcNAc(b1-2)Man(a1-3)]Man(b1-4)GlcNAc(b1-4)[Fuc(a1-6)]GlcNAc
# How it was run: as §1
# [22] = target: Gal(b1-3)GlcNAc(b1-3)Gal(b1-4)GlcNAc(b1-6)[Gal(b1-3)GlcNAc(b1-3)]Gal(b1-4)Glc
# How it was run: as §1
# [23] = target: Gal(b1-3)GlcNAc(b1-3)Gal(b1-4)[Fuc(a1-3)]GlcNAc
# How it was run: as §1
# [24] = target: Gal(b1-3)GlcNAc(b1-3)Gal(b1-4)[Fuc(a1-3)]GlcNAc(b1-6)[Gal(b1-3)GlcNAc(b1-3)]Gal(b1-4)Glc
# How it was run: as §1
# [25] = target: Gal(b1-3)GlcNAc(b1-3)GalNAc
# How it was run: as §1
# [26] = target: Gal(b1-3)GlcNAc(b1-6)Gal(b1-4)GlcNAc
# How it was run: as §1
binder,measurement,setting,value
B1,glycan array binding signal (z-score),Gal(a1-3)GalNAc,0.224
same,glycan array binding signal (z-score),[1],0.179
same,glycan array binding signal (z-score),[2],0.962
same,glycan array binding signal (z-score),Gal(a1-4)Gal(b1-4)Glc,0
same,glycan array binding signal (z-score),Gal(a1-4)Gal(b1-4)GlcNAc,1.39
same,glycan array binding signal (z-score),[3],0.928
same,glycan array binding signal (z-score),[4],0.39
same,glycan array binding signal (z-score),Gal(a1-4)GlcNAc,1.94
same,glycan array binding signal (z-score),Gal(a1-6)Glc,0.731
same,glycan array binding signal (z-score),Gal(b1-2)Gal,1.57
same,glycan array binding signal (z-score),Gal(b1-3)Gal,2.22
same,glycan array binding signal (z-score),Gal(b1-3)Gal(b1-4)GlcNAc,4.22
same,glycan array binding signal (z-score),Gal(b1-3)GalNAc,2.83
same,glycan array binding signal (z-score),[5],2.21
same,glycan array binding signal (z-score),[6],2.4
same,glycan array binding signal (z-score),Gal(b1-3)GalNAc(b1-3)Gal,3.67
same,glycan array binding signal (z-score),[7],1.22
same,glycan array binding signal (z-score),[8],4.67
same,glycan array binding signal (z-score),[9],2.83
same,glycan array binding signal (z-score),Gal(b1-3)GlcNAc,0.268
same,glycan array binding signal (z-score),[10],-0.328
same,glycan array binding signal (z-score),[11],-0.131
same,glycan array binding signal (z-score),Gal(b1-3)GlcNAc(b1-2)Man,0.303
same,glycan array binding signal (z-score),[12],0.302
same,glycan array binding signal (z-score),[13],0.352
same,glycan array binding signal (z-score),[14],0.07
same,glycan array binding signal (z-score),[15],0.267
same,glycan array binding signal (z-score),[16],-0.22
same,glycan array binding signal (z-score),[17],-0.286
same,glycan array binding signal (z-score),[18],-0.219
same,glycan array binding signal (z-score),[19],-0.208
same,glycan array binding signal (z-score),[20],-0.147
same,glycan array binding signal (z-score),[21],-0.065
same,glycan array binding signal (z-score),[22],0.152
same,glycan array binding signal (z-score),[23],-0.211
same,glycan array binding signal (z-score),[24],-0.041
same,glycan array binding signal (z-score),[25],0.385
same,glycan array binding signal (z-score),[26],1.76

# From the supplement of paper PMC8728848
